Results taken from PubChem BioAssay AID1346428 (National Center for Advancing Translational Sciences (NCATS), 2018).
“And” between values parts separate entries of the source, which are not always exact repeats. Equal values may be shown once. The whole screen tested about 48,000 compounds, of which about 1,200 (2.5%) were called active. Roughly 2% stayed inconclusive and do not appear here.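 How the source made its calls: active means activation of at least 60% and not above a set upper limit (about 1 call in 100 departs from these limits); inconclusive means activation of 40% to 60%, or above that upper limit; inactive means activation under 40%.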 The list shows a part of the results.

Each compound was assayed against Probable G-protein coupled receptor 32 (Homo sapiens) (UniProt O75388) (assay: qHTS for Agonists of Human Resolvin D1 Receptor DRV1). Details: CHO-K1 GPR32 beta-arrestin PathHunter luminescence, 90 min; at 76.9 µM; active compounds read high; zero percent set by DMSO-only wells.
Procedure, shortened: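 Step 1: seed CHO-K1 GPR32 beta-arrestin cells, 2,500/well, overnight at 37 °C. Step 2: add compounds, 90 min at 37 °C. Step 3: detection reagent, 1 h ambient, then luminescence.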
Further: 0% is about no effect.

UniProt O75388, sequence (O75388 whole entry, looked up): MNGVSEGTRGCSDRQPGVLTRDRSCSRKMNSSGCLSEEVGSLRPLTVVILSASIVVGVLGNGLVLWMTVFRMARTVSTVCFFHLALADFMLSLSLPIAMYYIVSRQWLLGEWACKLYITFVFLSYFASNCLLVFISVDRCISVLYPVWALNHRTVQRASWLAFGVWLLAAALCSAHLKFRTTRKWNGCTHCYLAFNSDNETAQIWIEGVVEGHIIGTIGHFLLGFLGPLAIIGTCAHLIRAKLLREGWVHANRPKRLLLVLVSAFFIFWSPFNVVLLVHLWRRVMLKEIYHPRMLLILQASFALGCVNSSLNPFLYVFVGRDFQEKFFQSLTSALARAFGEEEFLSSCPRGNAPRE

Row | SMILES | activation
1 | Cc1ccc(C(=O)Nc2ccc3c(c2)n(C)c(=O)c(=O)n3C)cc1 | inactive: 16.8%
2 | CCc1ccc(OC(C)C(=O)N2CCC(c3nc4ccccc4o3)CC2)cc1 (configuration not stated) | inactive: 23.7%
3 | CC(=O)Nc1ccc(NC(=O)CCc2nc3cccnc3n2Cc2cccs2)cc1 | inactive: -2.73%
4 | Cc1ccc(NC(=O)Cn2c(=O)n(Cc3nc(-c4ccccc4)no3)c(=O)c3cc4c(cc32)OCO4)cc1F | inactive: -1.77%
5 | COc1ccc(NC(=O)CC2C(=O)N(c3cccc(OC)c3)C(=O)N2CCc2cccs2)cc1 (configuration not stated) | inactive: -7.45%
6 | O=C(COc1ccccc1F)Nc1ccc2nc(SCCOc3ccccc3)sc2c1 | active: 98.9%
7 | O=C(NC1CC(=O)N(c2ccc(F)cc2)C1)c1ccc(S(=O)(=O)N2CCCCC2)cc1 (configuration not stated) | inactive: -6.63%
8 | O=c1c2sc3ccccc3c2n(Cc2cccc(F)c2)c(=O)n1Cc1ccccc1 | inactive: -8.09%
9 | CCOC(=O)Cn1c(=O)n(CC2CCCO2)c2nc(-c3ccccc3OC)nc(C(N)=O)c21 (configuration not stated) | inactive: -13.6%
10 | Cc1ccc2c(c1Br)C(O)(CC(=O)c1ccc(F)cc1)C(=O)N2 (configuration not stated) | inactive: -2.05%
11 | O=C(NCc1cccs1)c1ccc2c(=O)n3nc(Nc4ccccc4)sc3nc2c1 | inactive: -8.67%
12 | Cc1cccc2sc(N(Cc3cccnc3)C(=O)CCc3ccccc3)nc12 | inactive: -24.4%
13 | CCOC(=O)c1ccc(N2C(=O)c3[nH]nc(-c4ccccc4)c3C2c2ccc(CC)cc2)cc1 (configuration not stated) | inactive: -25.1%
14 | COc1ccccc1CNC(=O)C1CCCN(S(=O)(=O)c2ccc3c(c2)oc(=O)n3C)C1 (configuration not stated) | inactive: 4.9%
15 | COc1ccc(-c2cc(C(=O)Nc3c(C(=O)c4ccc(C)cc4)oc4ccccc34)no2)cc1 | inactive: -5.97%
16 | O=C(c1ccc2c(c1)N(Cc1ccccc1F)C(=O)c1ccccc1S2(=O)=O)N1CCC(Cc2ccccc2)CC1 | inactive: -2.52%
17 | O=C(Cn1c(=O)n(Cc2nc(-c3ccccc3)no2)c(=O)c2ccccc21)Nc1cccc(C(F)(F)F)c1 | inactive: 2.52%
18 | CCOc1ccccc1C(=O)N(Cc1ccco1)Cc1ccco1 | inactive: -19.6%
19 | Cc1c(Cl)cccc1NC(=O)CC1Oc2ccccc2NC1=O (configuration not stated) | inactive: -0.625%
20 | CC1C(=O)Nc2ccc(S(=O)(=O)N3CCCCC3)cc2NC1=O (configuration not stated) | inactive: -11.8%
21 | O=C(CCCn1c(=O)c2cccn2c2ccccc21)Nc1cc(C(F)(F)F)ccc1Cl | inactive: -16.3%

Row | SMILES | activation
22 | CCC(CC)C(=O)OCc1cc(=O)n2nc(C3CC3)sc2n1 | inactive: 21.6%
23 | CC1=C(c2ccc(Cl)cc2)S(=O)(=O)NC1=NCCCN1CCN(c2cc(C)ccc2C)CC1 | inactive: 0.251%
24 | CCOc1ccc(NCc2cccn2-c2nnc(N3CCC(C(=O)NCC(C)c4ccccc4)CC3)s2)cc1 (configuration not stated) | inactive: -29%
25 | CCOc1ccccc1NC(=O)CN1C(=O)COc2ccc(S(=O)(=O)N3CCOCC3)cc21 | inactive: -20.2%
26 | CCOC(=O)c1cc(-c2ccc(OC)cc2)n(CCC(=O)Nc2ccccc2OC)c1C | inactive: -16.8%
27 | O=C(CSc1nccn1Cc1ccccc1)NCc1ccco1 | inactive: -9.55%
28 | COc1ccc(Cn2c(CCC(=O)Nc3cc(OC)c(OC)c(OC)c3)nc3cccnc32)cc1 | inactive: -15.1%
29 | CCN(c1ccccc1)S(=O)(=O)c1ccc(NC(=O)c2nc(SC)ncc2Cl)cc1 | inactive: -26.6%
30 | COc1ccc(OC)c(NC(=O)CSc2ccc(-c3cccs3)nn2)c1 | inactive: 9.95%
31 | COc1cc(OC)c(NC(=O)C2CCN(S(=O)(=O)c3c(C)noc3/C=C/c3c(C)cc(C)cc3C)CC2)cc1Cl | inactive: -0.242%
32 | Cc1ccc(Cn2c(C(=O)O)c(CNCc3ccc(OC(C)C)cc3)c3ccc(C)cc32)cc1 | inactive: 41.8%
33 | COc1cccc(-n2c(=O)c3c(C)c(C)sc3n(CC(=O)NCCc3ccc(OC)c(OC)c3)c2=O)c1 | inactive: -0.486%
34 | COc1cccc(CNC(=O)c2cc(C)nc3c2c(C)nn3-c2ccc(C)cc2)c1 | inactive: -16.4%
35 | COc1cccc(OCc2nc3ccccc3n2CCOc2ccc(C)cc2)c1 | inactive: -20.6%
36 | CN(Cc1ccccc1)C(=O)c1cn(C)c2ccc(S(=O)(=O)N3CCCCC3)cc2c1=O | inactive: 13.1%
37 | COc1ccc2[nH]cc(CCNC(C)=O)c2c1 | inactive: -1.89% and inactive: 2.39%
38 | CCn1c(C(=O)NCc2ccc(F)cc2)cc2oc3ccccc3c21 | inactive: -7.48%
39 | Cn1c(=O)oc2cc(S(=O)(=O)NC(Cc3ccccc3)C(=O)Nc3ccc(F)cc3)ccc21 (configuration not stated) | inactive: -6.42%
40 | CCOC(=O)c1c(NC(=O)C(C)Sc2cn(CCNC(=O)c3c(F)cccc3F)c3ccccc23)sc2c1CCC2 (configuration not stated) | inactive: -4.01%
41 | CC12CN3CC(c4ccccc4)(CN(C1)C3c1ccc(O)cc1)C2=O (configuration not stated) | inactive: 8.48%
42 | Cc1ccc(-c2cc(C(=O)Nc3cc([N+](=O)[O-])ccc3C)no2)cc1F | inactive: -4.52%

Row | SMILES | activation
43 | COC(=O)c1c(NC(=O)C(C)Oc2ccc(Cl)c(C)c2)sc(C)c1C (configuration not stated) | inactive: -11.1%
44 | COc1ccc(OC)c(NS(=O)(=O)c2cc3c(cc2Cl)N(C(C)=O)CCO3)c1 | inactive: -0.332%
45 | CCOc1ccc(NC(=O)CC2C(=O)N(c3ccc(F)cc3)C(=O)N2Cc2ccc(OC)c(OC)c2)cc1 (configuration not stated) | inactive: -10.3%
46 | Cc1ccc(Sc2c(C)nn(-c3ccccc3)c2OC(=O)C(C)(C)C)cc1 | inactive: 10.5%
47 | COc1ccc(OC)c(CCNC(=O)CS(=O)(=O)Cc2nc(-c3cccc(Cl)c3)oc2C)c1 | active: 88%
48 | CCOC(=O)c1ccc(N2C(=O)c3n[nH]c(-c4cccs4)c3C2c2ccc(OCC)cc2)cc1 (configuration not stated) | inactive: -19%
49 | COc1ccc(CCNc2oc(/C=C/c3cc(OC)c(OC)c(OC)c3)nc2C#N)cc1OC | inactive: -18.7%
50 | COc1ccccc1NC(=O)CSc1nnc(N)s1 | inactive: 24.7%
51 | Cc1ccc(C)c2sc(NC(=O)c3ccc(S(=O)(=O)N4CCC(C)CC4)cc3)nc12 | inactive: -1.42%
52 | O=C(CSc1nc2cc(C(=O)NC3CCCC3)ccc2c(=O)n1CC1CCCO1)c1cccc(Cl)c1 (configuration not stated) | inactive: 9.96%
53 | CCN1C(=O)c2ccccc2S(=O)c2ccc(C(=O)NCc3ccc(OC)cc3)cc21 (configuration not stated) | inactive: -14.7%
54 | O=C(NCc1ccccc1Cl)c1ccc2c(c1)NC(=O)C(CS(=O)(=O)Cc1ccc(F)cc1Cl)N2 (configuration not stated) | inactive: -25.1%
55 | Cc1oc(-c2cccc(Cl)c2)nc1CSc1nncn2c1cc1occc12 | inactive: -9.17%
56 | O=C(NCCc1ccc(Cl)cc1)c1cnc2sc(N3CCOCC3)nn2c1=O | inactive: 16.5%
57 | COc1cc(OC)c(Nc2nc3ccccc3c3nncn23)cc1Cl | inactive: 7.34%
58 | CN(C)c1ccc(CN(Cc2ccco2)C(=O)c2ccc(C(C)(C)C)cc2)cc1 | inactive: -18%
59 | Cc1ccc(-c2nc3nc(C)cc(N4CCN(c5cccc(C)c5C)CC4)n3n2)cc1 | inactive: -5.35%
60 | CCOc1ccccc1NC(=O)NCc1ccc2c(c1)CCN2C(=O)c1ccccc1 | inactive: -21.6%
61 | COc1ccc(/C=C\c2onc(C)c2S(=O)(=O)N2CCC(C(=O)Nc3ccc(F)cc3F)CC2)cc1 | inactive: -19.8%
62 | CCOC(=O)c1c(C)oc2nc(C)nc(Nc3ccc(C)c(Cl)c3)c12 | inactive: 1.45%
63 | CCOC(=O)c1c(NC(=O)c2cc(C(C)C)on2)sc(C(C)=O)c1C | inactive: 1.41%

Row | SMILES | activation
64 | CCc1ccc(CNC(=O)c2cc(=O)[nH]c3ccc(S(=O)(=O)N4CCCCC4)cc23)cc1 | inactive: -3.03%
65 | COc1ccc(CC(=O)Nc2ccc3nc(Nc4ccc(OC)cc4)cc(C)c3c2)cc1 | inactive: 12.1%
66 | CCCOc1ccc(C(=O)Nc2ccc3oc(-c4ccncc4)nc3c2)cc1 | inactive: -3.26%
67 | O=C(Nc1nnc(N2CCCCCC2)s1)Nc1cc(F)ccc1F | inactive: 1.57%
68 | CCCCN(CC)CCCNC(=O)CS(=O)(=O)Cc1nc(-c2ccc(C)cc2)oc1C | inactive: 3.2%
69 | CCOc1ccc(CCNC(=O)C2CCN(C(=O)N3CC(CC)Oc4ccccc43)CC2)cc1 (configuration not stated) | inactive: -19.4%
70 | Cc1ccccc1-c1noc(-c2ccc(N3CCCCC3)c([N+](=O)[O-])c2)n1 | inactive: -6.01%
71 | COc1cc(NC(=O)CSc2nnc(C)n3c2cc2oc(C)cc23)cc(OC)c1 | inactive: -7.32%
72 | COc1ccc(NC(c2nnc(-c3ccccc3)o2)c2ccccc2F)cc1Cl (configuration not stated) | inactive: -7.53%
73 | CCOCCCN(Cc1ccco1)S(=O)(=O)c1cc2c(cc1Cl)NC(=O)CO2 | inactive: -14.5%
74 | Cc1c2cnn(CC(=O)NCc3ccc(F)cc3)c(=O)c2c(C)n1Cc1cccc(Cl)c1 | inactive: -4.03%
75 | O=C(NCc1ccc(Cl)cc1)c1cnc2sc(N3CCOCC3)nn2c1=O | inactive: 25.5%
76 | COCCCNC(=O)c1c(NC(=O)Cc2coc3c(C)c(C)ccc23)sc2c1CCCC2 | inactive: -8.53%
77 | COc1cccc(CNC(=O)CCS(=O)(=O)c2ccc3c(c2)oc(=O)n3C)c1 | inactive: -2.01%
78 | Cn1nnc2c(N3CCN(c4cccc(Cl)c4)CC3)ncnc21 | inactive: -4.92%
79 | COCCN(Cc1cccs1)S(=O)(=O)c1cc(-c2cc(C)no2)ccc1C | inactive: -12.1%
80 | CCC(Sc1nnc2c(n1)[nH]c1ccccc12)C(=O)Nc1nnc(C(C)C)s1 (configuration not stated) | inactive: -9.22%
81 | CCCCOC(=O)c1c(N)n(-c2ccc(OC)cc2OC)c2nc3ccccc3nc12 | inactive: -17%
82 | Cc1ccc(CCNS(=O)(=O)c2cc(-c3cc(C)no3)ccc2C)cc1 | inactive: -10.3%
